# System: TYRP1 mRNA in SK-MEL-19 and SK-MEL-23 cl.22 cells
# Experiment: Northern blot of polyA+ RNA for TYRP1 mRNA in HMBA-treated metastatic melanoma cells
# Details: FIG. 4A
smiles,measurement,value
"CC(=O)NCCCCCCNC(C)=O [HMBA, hexamethylene bisacetamide]",TYRP1 mRNA (melanocyte differentiation marker),down-regulation
